The IC50 comes from the fitted curve, where viability falls to half of the control; where the fit passes the top or lowest dose, that dose stands as a limit. AUC, from the same fit, is the share of area under the viability curve across the 256-fold dose range: 1 means no effect, lower means more sensitive.
Compound: Cn1c(=O)n(-c2ccc(C(C)(C)C#N)cc2)c2c3cc(-c4cnc5ccccc5c4)ccc3ncc21 [NVP-BEZ235]
Experiment: Viability of human cancer cell lines after 72 h of drug (GDSC screen)
Protocol: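 Human cancer cell lines in 384-well plates, medium with 10% serum, drug for 72 h over a 256-fold dose range (nine 2-fold or five 4-fold steps up to the top dose). Adherent lines were fixed and stained with the nucleic acid dye Syto60, suspension lines read with resazurin; signal relative to control wells, capped at 0 and 100%. One two-parameter sigmoid per drug and line, fitted in a mixed model over all curves with the slope shared within a line.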

Cell Line | AUC | IC50 [nM]
SW620 (large intestine, adherent, top dose 0.25 µM) | 0.862 | 174
HN (head and neck, adherent, top dose 0.25 µM) | 0.37 | 7.01
M059J (glioma, adherent, top dose 0.25 µM) | 0.667 | 47.5
ES4 (Ewing sarcoma, adherent, top dose 0.25 µM) | 0.578 | 26.3
SW962 (urogenital system, adherent, top dose 0.25 µM) | 0.505 | 16.2
JiyoyeP-2003 (Burkitt lymphoma, suspension, top dose 0.25 µM) | 0.731 | 64.4
JHU-011 (head and neck, adherent, top dose 0.25 µM) | 0.511 | 16.7
CHSA8926 (chondrosarcoma, adherent, top dose 0.25 µM) | 0.797 | 179
RCC-ER (kidney, adherent, top dose 0.25 µM) | 0.77 | 106
RS4-11 (leukaemia, suspension, top dose 0.25 µM) | 0.647 | 38.3
HCT-116 (large intestine, adherent, top dose 0.25 µM) | 0.822 | 
GCIY (stomach, adherent, top dose 0.25 µM) | 0.694 | 59.2
KYSE-510 (oesophagus, adherent, top dose 0.25 µM) | 0.708 | 53.5
RVH-421 (melanoma, adherent, top dose 0.25 µM) | 0.687 | 63.9
EC-GI-10 (oesophagus, adherent, top dose 0.25 µM) | 0.492 | 14.9
L-540 (Hodgkin lymphoma, suspension, top dose 0.25 µM) | 0.694 | 50.8
OCUB-M (breast, adherent, top dose 0.25 µM) | 0.767 | 80.9
CHSA0108 (chondrosarcoma, adherent, top dose 0.25 µM) | 0.618 | 34.9
NCI-H522 (lung adenocarcinoma, adherent, top dose 0.25 µM) | 0.801 | 149
TGBC11TKB (stomach, adherent, top dose 0.25 µM) | 0.897 | 246

Cell Line | AUC | IC50 [nM]
COR-L279 (small cell lung carcinoma, suspension, top dose 0.25 µM) | 0.862 | 177
SNU-407 (large intestine, adherent, top dose 0.25 µM) | 0.765 | 106
NCI-H211 (small cell lung carcinoma, adherent, top dose 0.25 µM) | 0.854 | 188
C32 (melanoma, adherent, top dose 0.25 µM) | 0.86 | 233
OCI-AML3 (acute myeloid leukaemia, suspension, top dose 0.25 µM) | 0.735 | 64.7
HT55 (large intestine, adherent, top dose 0.25 µM) | 0.958 | > 250
NB12 (neuroblastoma, adherent, top dose 0.25 µM) | 0.898 | > 250
Hs683 (glioma, adherent, top dose 0.25 µM) | 0.61 | 31.5
MY-M12 (leukaemia, suspension, top dose 0.25 µM) | 0.465 | 12.4
ALL-PO (lymphoblastic leukaemia, suspension, top dose 0.25 µM) | 0.742 | 80.5
VA-ES-BJ (soft tissue, adherent, top dose 0.25 µM) | 0.536 | 19.7
MC-IXC (neuroblastoma, adherent, top dose 0.25 µM) | 0.749 | 63.4
RCC-JW (kidney, adherent, top dose 0.25 µM) | 0.336 | 5.4
ML-2 (acute myeloid leukaemia, suspension, top dose 0.25 µM) | 0.868 | 186
GRANTA-519 (B-cell lymphoma, suspension, top dose 0.25 µM) | 0.563 | 22.8
KP-N-YN (neuroblastoma, adherent, top dose 0.25 µM) | 0.987 | > 250
SW948 (large intestine, adherent, top dose 0.25 µM) | 0.952 | > 250
NCI-H1623 (lung adenocarcinoma, adherent, top dose 0.25 µM) | 0.662 | 49.1
HCC-44 (lung adenocarcinoma, adherent, top dose 2 µM) | 0.203 | 17.1
JEG-3 (urogenital system, adherent, top dose 0.25 µM) | 0.738 | 68.9

Cell Line | AUC | IC50 [nM]
CL-34 (large intestine, adherent, top dose 0.25 µM) | 0.936 | > 250
CCRF-CEM (lymphoblastic leukaemia, suspension, top dose 0.25 µM) | 0.448 | 11.5
COLO-783 (melanoma, adherent, top dose 0.25 µM) | 0.934 | > 250
COLO-824 (breast, adherent, top dose 0.25 µM) | 0.913 | > 250
ESO26 (oesophagus, adherent, top dose 0.25 µM) | 0.859 | 188
NCI-H3122 (lung adenocarcinoma, adherent, top dose 0.25 µM) | 0.752 | 85.3
A388 (skin, adherent, top dose 0.25 µM) | 0.759 | 99.7
SK-MEL-2 (melanoma, adherent, top dose 0.25 µM) | 0.764 | 94.5
SBC-5 (small cell lung carcinoma, adherent, top dose 0.25 µM) | 0.779 | 82.7
GOTO (neuroblastoma, adherent, top dose 0.25 µM) | 0.861 | > 250
NMC-G1 (glioma, adherent, top dose 0.25 µM) | 0.777 | 124
BT-20 (breast, adherent, top dose 0.25 µM) | 0.76 | 108
HT-115 (large intestine, adherent, top dose 0.25 µM) | 0.888 | 238
HCC-56 (large intestine, adherent, top dose 0.25 µM) | 0.84 | 179
BICR10 (head and neck, adherent, top dose 0.25 µM) | 0.629 | 37.5
GT3TKB (stomach, adherent, top dose 2 µM) | 0.421 | 78.1
HT-29 (large intestine, adherent, top dose 0.25 µM) | 0.911 | > 250
NB6 (neuroblastoma, adherent, top dose 0.25 µM) | 0.88 | > 250
MFE-280 (endometrium, adherent, top dose 0.25 µM) | 0.88 | > 250

Reference: the supplement of paper PMC4967469
